# Reference: the antibiotic and cytotoxicity screens of Wong et al. (2023)
# The list shows a part of the results.
# Columns and labels:
# [1] = system: HSkMC (human skeletal muscle cells); assay: cytotoxicity call (relative viability < 0.9); details: 10 µM
# [2] = system: S. aureus RN4220; assay: growth inhibition call (relative growth <= 0.2); details: 50 µM
# [3] = system: HepG2; assay: cytotoxicity call (relative viability < 0.9); details: 10 µM
Compound,cytotoxicity call [1],growth inhibition call [2],cytotoxicity call [3]
O=C(C[C@H]1CC[C@H](NS(=O)(=O)c2ccccc2)[C@@H](CO)O1)NCc1ccncn1,inactive,inactive,
Cc1ccc(OC[C@@H](O)CN)c(C)c1,inactive,inactive,
C[C@@H]1CN([C@@H](C)CO)C(=O)Cc2cc(NC(=O)Nc3ccc4c(c3)OCO4)ccc2O[C@@H]1CN(C)Cc1ccc(-c2ccccc2)cc1,inactive,inactive,
C[C@H](CO)N1C[C@H](C)[C@@H](CN(C)Cc2ccc(Oc3ccccc3)cc2)Oc2ccc(NC(=O)Cc3cn(C)c4ccccc34)cc2CC1=O,inactive,inactive,
C[C@H]1CCCCO[C@@H](CN(C)Cc2ccc3c(c2)OCO3)[C@@H](C)CN([C@@H](C)CO)C(=O)c2cc(NS(=O)(=O)c3ccc(Cl)cc3)ccc2O1,inactive,inactive,
Cc1cc(C(=O)Nc2cccc3c2O[C@H](CN(C)S(=O)(=O)c2ccc(F)cc2)[C@@H](C)CN([C@@H](C)CO)C3=O)n(C)n1,inactive,inactive,
COc1ccccc1S(=O)(=O)N1C[C@@H](O)COC[C@@H]2O[C@@H](CC(=O)O)CC[C@H]21,inactive,inactive,
C[C@@H]1CCCCO[C@@H](CN(C)S(C)(=O)=O)[C@@H](C)CN([C@@H](C)CO)C(=O)c2cc(NC(=O)CCCN(C)C)ccc2O1,inactive,inactive,inactive
CCCN1C[C@H](C)[C@H](OC)CN(C)C(=O)c2ccc(NS(=O)(=O)c3cn(C)cn3)cc2OC[C@@H]1C,inactive,inactive,inactive
C[C@H](CO)N1C[C@H](C)[C@@H](CN(C)S(=O)(=O)c2cccs2)OCCCC[C@H](C)Oc2ccc(NS(=O)(=O)c3cn(C)cn3)cc2C1=O,inactive,inactive,
